Data published in PubChem BioAssay AID995 (National Center for Advancing Translational Sciences (NCATS), 2007).
The campaign covered roughly 72,000 compounds. About 710 (0.99%) were called active. The inconclusive results got no clear call from the source; some entries with a clear call stand among them for comparison. The call rests on the fitted dose curve; in most records, active means well fitted inhibition curve with a large enough effect; inconclusive means small, poorly fitted or top-dose-only effect; inactive means no such curve, though single readings can be large or run the other way. Potencies of inconclusive entries are left out as doubtful fits.

Assay: qHTS Assay for Inhibitors of the ERK Signaling Pathway using a Homogeneous Screening Assay; further: nearly all actives have a fitted effect of over 55% in size
Details: HEK293-V1b, vasopressin-stimulated pERK AlphaScreen; activity, negative = inhibition: at 57.5 µM (top of the series) unless noted
Procedure, shortened: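 V1b-HEK293 cells; cpd 30 min 37C; 25 nM vasopressin 5 min; lyse 10 min; AlphaScreen beads 5 hr RT. Normalized to DMSO basal and 25 nM vasopressin; AC50 by Hill fit.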
On the % scale 0 is the no-effect control and ±100 the full control effect; potency means the concentration at half of the fitted maximal effect; tags describe the fitted curve by direction and shape.

Compound | Potency | activity, negative = inhibition
CC(=O)c1cccc(-n2nnnc2SCC(=O)Nc2cccc(NC(=O)c3ccco3)c2)c1 | inactive | 
Brc1ccc2ncnc(NCc3ccco3)c2c1 | inconclusive [inhibitor, single point] | 
COc1ccc(S(=O)(=O)Nc2ccc(C(F)(F)F)cc2)cc1OC | inconclusive [inhibitor, single point] | 
c1ccc(-n2c(Cc3cn4ccsc4n3)nnc2N2CCOCC2)cc1 | inconclusive [inhibitor, single point] | 
Cc1cc(OCC(=O)O)c(Cl)cc1Cl |  | inactive: -16.5% [at 11.5 µM]
COc1cc(CN2CCN(c3cccc(C)c3C)CC2)cc(Br)c1O | inconclusive [inhibitor, single point] | 
CCOC(=O)c1c(C)nc2c3ccccc3ccn12 | inconclusive [inhibitor, full curve] | 
COc1ccc(NC(=O)Nc2cc(C)ccc2OC)cc1 | inconclusive [inhibitor, single point] | 
N#CCc1ccccc1[N+](=O)[O-] | inactive | 
CC1(C)SC2C(NC(=O)Cc3ccccc3)C(=O)N2C1C(=O)O (centres undefined) | inactive | 
O=C(c1nc2nc(-c3ccc(Cl)cc3)cc(C(F)(F)F)n2n1)N1CCOCC1 | inconclusive [inhibitor, partial curve] | 
Cc1csc(SCc2nnc(-c3ccccc3Br)o2)n1 | inactive | 
O=C(Nc1ccc2oc(-c3ccncc3)nc2c1)c1cccs1 | inconclusive [inhibitor, partial curve] | 
COc1cccc(Nc2nc(-c3sc(N)nc3C)cs2)c1 | inconclusive [inhibitor, partial curve] | 
COc1ccc(NC(=O)CSc2nnc(-c3cccs3)n2-c2ccccc2)cc1 | inconclusive [inhibitor, partial curve, poor fit] | 
CCOC(=O)C1=C(c2ccccc2)Nc2ncnn2C1c1cc(OC)cc(OC)c1OC (centres undefined) | inconclusive [inhibitor, partial curve] | 
CCOC(=O)CSc1nc2c(c(=O)[nH]c(=O)n2C)n1CCc1ccccc1 | inactive | 
CCCCCCn1c(NCC)nc2c1c(=O)n(C)c(=O)n2C | inconclusive [inhibitor, full curve, poor fit] | 
Cc1ccc(SCc2nc(-c3cccnc3)no2)cc1 | inconclusive [inhibitor, partial curve] | 
Cc1cc(NC(=O)CSc2nc(-c3ccco3)cc(C(F)(F)F)n2)n(-c2ccccc2)n1 |  | inconclusive: -40.3% [inhibitor]
O=C(Cn1nnc(-c2ccc3c(c2)OCO3)n1)N1CCOCC1 | inactive | 
O=C(c1cc2nc(-c3ccco3)cc(C(F)(F)F)n2n1)N1CCN(c2ccccc2)CC1 | inactive | 
CS(=O)(=O)N(CC(O)Cn1c2ccccc2c2ccccc21)c1ccccc1 (centres undefined) | inconclusive [inhibitor, single point] | 
COc1ccc(N2CC(O)=C(c3nc4ccccc4s3)C2=N)c(OC)c1 | inactive | 
CC(NC(=O)Cc1cccs1)C(c1cccs1)N1CCN(c2ccccc2F)CC1 (centres undefined) | inactive | 

Compound | Potency | activity, negative = inhibition
Cc1ccnc(N2CCC(C(=O)NC3CCCCCC3)CC2)n1 | inactive | 
O=C(c1ccccc1OCc1ccccc1Br)N1CCN(c2ncccn2)CC1 | inconclusive [inhibitor, single point] | 
Cc1cc(C)c2c(=O)n(CC(=O)NCCCN3CCN(c4ccccc4F)CC3)sc2n1 | inconclusive [inhibitor, single point] | 
COc1cccc(-c2cc(=O)c3ccc(OC)cc3o2)c1 | inconclusive [inhibitor, full curve, poor fit] | 
CN1CCC(OC(c2ccccc2)c2ccccc2)CC1 | inconclusive [inhibitor, single point] | 
O=S(=O)(NCCc1csc(-c2ccccc2)n1)c1ccc2c(c1)OCCO2 | inconclusive [inhibitor, single point] | 
CS(=O)(=O)Nc1cccc(-c2ccc3ncnc(NCCN4CCOCC4)c3c2)c1 | inactive | 
Cc1noc(C)c1-c1nccc(N(C)Cc2ccco2)n1 | inconclusive [inhibitor, partial curve] | 
COc1ccccc1CNc1ncnc2ccc(-c3ccc(C(=O)N(C)C)cc3)cc12 | inconclusive [inhibitor, partial curve] | 
COc1ccccc1-c1cc(C(=O)N2CCN(c3ccccc3OC)CC2)no1 | inactive | 
CS(=O)(=O)Nc1cccc(-c2cncnc2-n2ccnc2)c1 | inconclusive [inhibitor, single point] | 
COc1ccc(NC(=O)CN(c2cc(C)cc(C)c2)S(=O)(=O)c2c(C)noc2C)cc1OC | inconclusive [inhibitor, full curve, poor fit] | 
Cc1nc2cnc(N3CCOCC3)nc2n(C[C@H]2CCCO2)c1=O | inactive | 
COc1ccc2cc(C(=O)OC(C)C)sc(=O)c2c1OC | inconclusive [inhibitor, partial curve] | 
COc1ccc(C(C)C(=O)c2ccc(O)cc2O)cc1 (centres undefined) | inactive | 
CCN1C(=O)C(O)(CC(=O)c2ccc(-n3cccc3)cc2)c2ccccc21 (centres undefined) | inconclusive [inhibitor, partial curve] | 
Cc1ccc2nc(SCC(=O)O)nc(C)c2c1 | inactive | 
Fc1ccc([C@@H]2CCNC[C@H]2COc2ccc3c(c2)OCO3)cc1 | inconclusive [inhibitor, partial curve] | 
COc1ccc(-c2c(C#N)c(N)nc3c2CCCC3)cc1OC | inconclusive [inhibitor, partial curve] | 
OC(COc1ccc2cc(Br)ccc2c1)CN1CCN(c2ccccn2)CC1 (centres undefined) | active: 25.1 µM | 
N.N.O=C(O)C1(C(=O)O)CCC1.[Pt] | inactive | 
CC(=O)N1CCN(c2ccc(NCc3ccc(C(C)C)cc3)cc2)CC1 | inconclusive [inhibitor, partial curve] | 
O=C(NC1CCCCCC1)C1c2ccccc2C(=O)N1Cc1ccco1 (centres undefined) | inactive | 
CC1(C)CC(=O)C=C(NCCN2CCN(C(=O)Nc3ccc(Cl)c(Cl)c3)CC2)C1 | inconclusive [inhibitor, full curve, poor fit] | 
Cc1cc(NC(=O)CSc2nnc(COc3ccccc3)n2Cc2ccco2)no1 | inactive | 

Compound | Potency | activity, negative = inhibition
Cc1ccc2[nH]c(=O)c(CN(CCO)C(=O)NCc3ccccc3)cc2c1 | inactive | 
Cn1c(=O)[nH]c(=O)c2c1nc(N1CCCCC1)n2CCCSc1nc2ccccc2s1 | inconclusive [inhibitor, single point] | 
CCCCNc1nc(C)nc2c1nc(-c1ccccc1)n2CCN1CCCC1 |  | inconclusive: -30.8% [inhibitor]
CCc1nnc(NC(=O)CSc2nnc(Cc3ccccc3)n2Cc2ccccc2)s1 | inconclusive [inhibitor, partial curve] | 
COc1cc2c(cc1OC)CN(C(=O)CSc1nc(N)c(C#N)cc1C#N)CC2 | inconclusive [inhibitor, partial curve] | 
COC(=O)c1c(NC(=O)c2ccc(Br)s2)sc2c1CCC2 | inactive | 
COC(=O)N1CCC2(CC1)CCN(c1ccccc1)CC2 | inconclusive [inhibitor, single point] | 
COC(=O)c1nn(-c2ccc(-c3ccccc3)cc2)cc1O | inconclusive [inhibitor, single point] | 
C=CCOC(=O)c1[nH]c2c(c1C)C(=O)CC(c1ccco1)C2 (centres undefined) | inconclusive [inhibitor, single point] | 
CCOc1ccc(C2C(C#N)=C(N)SC(N)=C2C#N)c(OCC)c1 | inconclusive [inhibitor, single point] | 
CCOC(=O)c1c(NC(=O)CSc2nnc(-c3ccccc3)n2CC)sc(C(C)=O)c1C | inactive | 
COc1cc(/C=C/C(=O)CC(=O)/C=C/c2ccc(O)c(OC)c2)ccc1O | active: 31.6 µM | 
Cc1cccc(CNc2cc(-c3cccc(C#N)c3)ncn2)c1 | inconclusive [inhibitor, partial curve] | 
CC(C)(C)c1ccc(-c2nc(C#N)c(NCc3ccncc3)o2)cc1 | inconclusive [inhibitor, partial curve] | 
COc1ccc(Oc2ncc3nc(-c4ccc(F)cc4)c(=O)n(Cc4cccs4)c3n2)cc1 | inactive | 
O=C(Nc1ccccc1)N1CCC2(CC1)CCN(S(=O)(=O)c1ccccc1)CC2 | inactive | 
O=C1C(SCCO)=C(SCCO)C(=O)c2ccccc21 | active: 15.8 µM | 
COc1cc2c(cc1OC)-c1cc(N3CCCCCC3)nc(=O)n1CC2 | inconclusive [inhibitor, partial curve] | 
CC(C)=CCOc1cc2oc(=O)ccc2cc1O | inconclusive [inhibitor, full curve, poor fit] | 
CCCc1cc(=O)oc2cc3oc(C)c(C)c3cc12 | inactive | 
Cn1cccc1Cc1nnc(SCC(=O)N2CCCCCC2)n1CCc1ccccc1 | inconclusive [inhibitor, partial curve] | 
O=C(Nc1ccccc1O)c1cc(S(=O)(=O)N2CCOCC2)c(Cl)cc1Cl | inconclusive [inhibitor, partial curve] | 
CCOC(=O)N1CCN(C(=O)c2cc(-c3ccc(OCC)cc3)nc3ccccc23)CC1 | inconclusive [inhibitor, partial curve] | 
COc1ccc(S(=O)(=O)NC2CCCCC2)cc1C | inactive | 
